# Hit rate of the full screen: of about 330,000 compounds, about 1,700 (0.52%) were called active. The shares of active, inactive and inconclusive entries below differ from those in the screen. Calls follow the shape of the dose curve; as a rule, active = well fitted inhibition curve with a large enough effect; inconclusive = small, poorly fitted or top-dose-only effect; inactive = no such curve, though single readings can be large or run the other way. Potencies of inconclusive entries are doubtful fits and often do not repeat.
# Molecular target: Beta-lactamase (Escherichia coli (strain K12)) (UniProt P00811)
# Experiment: qHTS Inhibitors of AmpC Beta-Lactamase (assay without detergent); also: nearly all actives have a fitted effect of over 20% in size
# Conditions: AmpC nitrocefin hydrolysis, absorbance 480 nm, 0.0001% Triton; activity change, negative = inhibition: at 57.1 µM (top of the series) unless noted
# Experimental: NIH Molecular Libraries Probe Production Network [MLPCN] NIH Chemical Genomics Center [NCGC] Assay Provider: Professor Brian Shoichet, UCSF Assay Overview: This aggregation profiling approach exploits the sensitivity of aggregate formation to detergent. Inhibition of b-lactamase is measured in the presence and absence of 0.01% Triton X-100. This particular assay had the prescence of 0.01% Triton X-100. See Pubchem assay "Promiscuous and Specific Inhibitors of AmpC Beta-Lactamase (assay without detergent)" for related screen. Compounds that inhibit only in the absence of detergent are considered likely promiscuous aggregators. A screen of 1,030 compounds was performed in Brian Shoichet's lab in 96-well format. AmpC activity was measured by following the absorbance at 480 nm. Nitrocefin is a chromogenic substrate: while nitrocefin is yellow (lmax 390 nm), the product of its hydrolysis is red (lmax 486 nm, 17,000 M-1). AmpC beta lactamase was provided by Shoichet Lab, UCSF.
# Buffer: 20 mM phosphate buffer, pH 7.0 Triton X-100: No Detergent screen: 0.0001%, Detergent screen: 0.01%. Reagents/Controls: Buffer in columns 3 and 4 as negative control (no enzyme). 5.3 nM AmpC in columns 1, 2, 5-48. Titration of UCSF compound 9 control (from 10 mM, then 1:2) pin-transferred to column 2. Column 1 is neutral (100% activity). Assay Steps: Six uL of reagents were dispensed to 1536-well Greiner black clear bottom plates. Compounds and controls (23 nL) were transferred via Kalypsys PinTool. The plates were incubated for 15 min at room temperature, and then 2 uL of 800 uM solution of nitrocefin was added to start the reaction. The plates were immediately transferred to and read every 20 seconds for 4 min on ViewLux (Perkin-Elmer) High-throughput CCD imager using 480 nm absorbance protocol. During dispense, reagent bottles were kept submerged into 4 deg C water bath. Keywords: NIH Roadmap, MLSCN, MLI, MLSMR, qHTS, NCGC, AmpC Beta-Lactamase, Aggregation
# Potency is read from the fitted curve at half-maximal effect; tags tell the direction and shape of the fitted curve.
# Sequence of UniProt P00811 (P00811 whole entry, looked up): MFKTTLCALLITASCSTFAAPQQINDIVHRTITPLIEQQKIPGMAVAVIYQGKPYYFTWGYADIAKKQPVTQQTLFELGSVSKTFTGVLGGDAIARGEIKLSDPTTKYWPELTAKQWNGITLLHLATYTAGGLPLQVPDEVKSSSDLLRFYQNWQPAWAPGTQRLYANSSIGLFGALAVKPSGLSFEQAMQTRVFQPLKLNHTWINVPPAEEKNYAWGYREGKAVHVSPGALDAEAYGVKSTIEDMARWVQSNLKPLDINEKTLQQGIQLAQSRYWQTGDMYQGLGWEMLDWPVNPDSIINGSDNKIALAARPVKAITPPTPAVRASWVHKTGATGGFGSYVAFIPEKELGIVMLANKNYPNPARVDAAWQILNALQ
SMILES,Potency,"activity change, negative = inhibition"
O=C(OCC(=O)N1CCCc2ccccc21)c1ccccc1[N+](=O)[O-],inactive,–
O=C(O)CC(CNS(=O)(=O)c1ccccc1)c1ccccc1 (configuration not stated),active: 2.51 µM,–
CCCCCn1c(C(Cc2ccccc2)NC(=O)COC)nc2ccccc21 (configuration not stated),active: 1.26 µM,–
Cc1ccc(NC(=O)COC(=O)c2ccccc2Cl)cc1S(=O)(=O)N(C)C,"inconclusive: 12.6 µM [inhibitor, partial curve]",–
O=C(CSc1nc(-c2ccccc2)c(-c2ccccc2)o1)Nc1nnc(-c2ccccc2)s1,"inconclusive: 35.5 µM [inhibitor, single point]",–
CCCOc1ccc(OCCN2CCCC(C)C2)cc1 (configuration not stated),"inconclusive: 3.55 µM [inhibitor, partial curve]",–
N#Cc1c(SCC(=O)Nc2cccc(C(F)(F)F)c2)sc2c(O)cc(=O)[nH]c12,active: 22.4 µM,–
CCOC(=O)N1CCN(S(=O)(=O)c2ccc(C(=O)NNc3nc4ccc(Cl)cc4s3)cc2)CC1,"inconclusive: 3.55 µM [inhibitor, partial curve]",–
CC(=O)Cn1cnc2c(cnn2-c2ccc(C)c(C)c2)c1=O,inactive,–
O=C(COc1ccccc1)NCc1nnc2c3ccccc3c(-c3ccccc3)nn12,inactive,–
COc1ccc2c(c1)-c1c(ssc1=S)C(C)(C)N2C(=O)CSC1=NCCS1,"inconclusive: 28.2 µM [inhibitor, partial curve]",–
CC(C)c1ccc(/C=N/NC(=O)c2nnn(-c3nonc3N)c2CSC2=NCCS2)cc1,"inconclusive: 4.47 µM [inhibitor, single point]",–
Cc1ccc(NC(=O)Cn2c(/C=C/c3ccccc3)nc3ccccc32)cc1C,active: 8.91 µM,–
O=c1cc(/N=C/c2coc3c(ccc4ccccc43)c2=O)[nH]c(=S)[nH]1,"inconclusive: 28.2 µM [inhibitor, single point]",–
COc1ccc2ccccc2c1/C=N\NC(=O)c1ccc(C)s1,active: 11.2 µM,–
Cc1cc(Nc2ccc(Cl)cc2)nc(NCc2ccccc2)n1,–,inactive: -0.744% [at 2.29 µM]
Cc1ccc(NC(=O)Cn2ncc(Cl)c(Cl)c2=O)cc1S(=O)(=O)N1CCCCC1,active: 3.98 µM,–
O=C(CNC(=O)c1ccc(Cl)c([N+](=O)[O-])c1)OC1CCCCC1=O (configuration not stated),"inconclusive: 39.8 µM [inhibitor, single point]",–
O=c1oc2ccc3ccccc3c2cc1-c1nnc(-c2cccs2)o1,"inconclusive: 39.8 µM [inhibitor, single point]",–
CCCSc1nnc2nc3c(nn12)c1ccccc1n3C,"inconclusive: 39.8 µM [inhibitor, partial curve, poor fit]",–
COc1ccc(/C=N/NC(=O)c2ccc(-c3ccccc3)cc2)cc1O,active: 35.5 µM,–
CCOC(=O)N1CCC(=NNS(=O)(=O)c2cccc([N+](=O)[O-])c2)CC1,inactive,–
C=CCOc1ccc(C2NC(=S)NC3=C2CCc2ccccc23)cc1 (configuration not stated),"inconclusive: 14.1 µM [inhibitor, partial curve]",–
CS(=O)(=O)c1ccc(Cl)c(NC(=O)COC(=O)CCN=C2NS(=O)(=O)c3ccccc32)c1,"inconclusive: 31.6 µM [inhibitor, single point]",–

SMILES,Potency,"activity change, negative = inhibition"
Cc1cc(S(=O)(=O)Nc2ccc(C(=O)NCc3ccncc3)cc2)ccc1F,"inconclusive: 25.1 µM [inhibitor, single point]",–
COc1cc(/C=N/NC(=O)c2cccc(NC(=O)c3ccccc3C)c2)ccc1O,"inconclusive: 22.4 µM [inhibitor, partial curve]",–
O=C(C1=C[C@@H](c2ccc(C(F)(F)F)cc2)C[C@@H](OCCCCO)O1)N1CCN(Cc2ccccc2)CC1,inactive,–
CCS(=O)(=O)NCC(c1cccnc1)N1CCN(c2ccccc2)CC1 (configuration not stated),"inconclusive: 0.631 µM [inhibitor, full curve, poor fit]",–
O=C(CS(=O)CC(=O)N(c1ccccc1)C(C(=O)NC1CCCC1)c1cccs1)Nc1ccc(F)cc1 (configuration not stated),"inconclusive: 0.141 µM [inhibitor, full curve, poor fit]",–
Cn1c(CO)cnc1S(=O)(=O)Cc1ccc([N+](=O)[O-])cc1,"inconclusive: 5.62 µM [inhibitor, single point]",–
Cc1ccccc1OCCCN1C(=O)C(=O)c2cccc(C)c21,"inconclusive: 0.355 µM [inhibitor, full curve, poor fit]",–
Cc1cc(Nc2cc(F)ccc2C)n2ncnc2n1,active: 28.2 µM,–
O=C(Nc1ccc2c(c1)OCO2)OCc1ccccc1,inactive,–
Nc1c(C=C2C=CC(=O)C=C2)c(=O)nc2snc(SCc3ccccc3)n12,"inconclusive: 7.94 µM [inhibitor, partial curve]",–
Cc1ccnc(NS(=O)(=O)c2ccc(NC(=O)Cc3ccc(Br)cc3)cc2)n1,"inconclusive: 10 µM [inhibitor, partial curve]",–
OC(CNCCC(c1ccccc1)c1ccccc1)COc1ccccc1 (configuration not stated),inactive,–
COC(=O)c1ccccc1S(=O)(=O)N1CCC(C(=O)OCc2ccc([N+](=O)[O-])cc2)CC1,"inconclusive: 39.8 µM [inhibitor, single point]",–
Cc1cc(SCC(=O)N/N=C/c2ccc(O)c(O)c2O)c(C)cc1Br,active: 17.8 µM,–
COc1ccccc1NS(=O)(=O)c1cccc(C(=O)N/N=C(\C)c2cccnc2)c1,"inconclusive: 35.5 µM [inhibitor, single point]",–
CCC1CCc2c(sc(NC(=O)CSc3nc(-c4ccco4)cc(C(F)(F)F)n3)c2C#N)C1 (configuration not stated),"inconclusive: 1.26 µM [inhibitor, full curve, poor fit]",–
CCOC(=O)N1CCN(C(=O)Nc2ccccc2Cl)CC1,"inconclusive: 6.31 µM [inhibitor, single point]",–
CC(C)Cc1csc(NC(=O)c2ccc(Cl)cc2)c1C(=O)O,inactive,–
Cc1ccc(NC2=C(Cl)C(=O)OC2OC(=O)c2ccccc2)c(C)c1 (configuration not stated),"inconclusive: 8.91 µM [inhibitor, partial curve]",–
COc1ccccc1N1CCN(CC(O)c2ccc3cc[nH]c3c2)CC1 (configuration not stated),"inconclusive: 50.1 µM [inhibitor, partial curve, poor fit]",–
COc1ccccc1-n1c(C)c2c(OC)cccc(=O)c2c1C,"inconclusive: 3.55 µM [inhibitor, single point]",–
CC(C)Cc1cc(C(=O)NCc2cccs2)no1,"inconclusive: 5.01 µM [inhibitor, full curve, poor fit]",–
O=C(/C=C/c1ccccc1)Nc1sc2c(c1C(=O)O)CCC2,inactive,–
C#CCn1cc(/C=N/NC(=O)c2cc3ccccc3o2)c2ccccc21,active: 28.2 µM,–

SMILES,Potency,"activity change, negative = inhibition"
CC[N+]1(CC)CC2=Cc3ccccc3CC2C1 (configuration not stated),inactive,–
CN(C)/C=C(\C#N)c1nc2ccccc2[nH]1,inactive,–
O=C(NNC(=O)C1CCN(Cc2ccc(F)cc2Cl)CC1)Nc1ccc([N+](=O)[O-])cc1,"inconclusive: 31.6 µM [inhibitor, partial curve]",–
O=C(Cn1nc(Cc2ccncc2)c2ccccc2c1=O)N1CCN(C(=O)c2ccco2)CC1,"inconclusive: 4.47 µM [inhibitor, full curve, poor fit]",–
O=C(OCc1nc2ccsc2c(=O)[nH]1)c1ccc(Cl)nc1,"inconclusive: 39.8 µM [inhibitor, single point]",–
COc1ccc(-n2c(C(C)n3nc(C)c([N+](=O)[O-])c3C)n[nH]c2=S)cc1 (configuration not stated),inactive,–
CC1(C)CC(=O)N(c2cc(Cl)ccc2Cl)C(=O)C1,inactive,–
C[C@@H]1CN([C@H](C)CO)C(=O)Cc2cc(NC(=O)Nc3ccccc3)ccc2O[C@@H]1CN(C)Cc1ccc2c(c1)OCO2,inactive,–
CC(C)(C)CN1CCN(Cc2cccnc2)CC1CCO (configuration not stated),inactive,–
Cc1nnc(SCc2cc(=O)n3[nH]cnc3n2)s1,"inconclusive: 3.16 µM [inhibitor, single point]",–
COc1ccc(NC(=O)CSc2nc3c(c(=O)n2-c2ccc(F)cc2)SCC3)cc1,"inconclusive: 20 µM [inhibitor, partial curve, poor fit]",–
O=C(Nc1ccc(S(=O)(=O)Nc2nccs2)cc1)c1nn(-c2ccc(F)cc2)ccc1=O,active: 10 µM,–
C=CCNC(=S)NC(=O)c1ccc(C)c(Br)c1,–,inactive: -16.3% [at 2.29 µM]
CCOCCCNCc1ccc(OC)cc1,inactive,–
O=C(CSc1nc2nn(-c3ccccc3)c(=O)c-2c2n1CCCCC2)Nc1ccc(F)c(F)c1,active: 10 µM,–
Cc1ccc(SCC(=O)NC(=O)Nc2ccc3c(c2)OCCO3)cc1C,inactive,–
Clc1ccccc1N1CCN(c2ncnc3nc[nH]c23)CC1,active: 8.91 µM,–
COc1ccc(NC(=O)CSc2nnc3ccc(-c4ccccn4)nn23)c(OC)c1,"inconclusive: 39.8 µM [inhibitor, single point]",–
O=c1c(-c2ccccc2)c(-c2ccccc2)oc2cc(O)cc(O)c12,"inconclusive: 6.31 µM [inhibitor, full curve, poor fit]",–
O=C(COC(=O)c1ccccc1Br)Nc1ccc(F)cc1,"inconclusive: 31.6 µM [inhibitor, single point]",–
Clc1ccc(OCc2nnc(-c3ccccc3Br)o2)cc1,inactive,–
COc1cccc(-c2c(C#N)c(N)nc3c2c(C)nn3-c2ccccc2)c1O,inactive,–
Cc1cc(C)c2nc(SCC(=O)N3CC(=O)Nc4ccccc43)c(C#N)cc2c1,active: 3.55 µM,–
CC(=O)Nc1ccc(NC(=O)CN(c2ccc(C34CC5CC(CC(C5)C3)C4)cc2)S(C)(=O)=O)cc1,inactive,–

# From PubChem BioAssay AID485341 (National Center for Advancing Translational Sciences (NCATS), 2010)
